Structures can show the parent of a compound that is named as a salt.
Columns and labels:
Test in all cases: microbe, parasite or virus in culture
HIV-1 K103N RT mutant = conditions: Human immunodeficiency virus 1, HeLa, read-out: K103N activity level, HeLa-CD4-LTR-β-gal cells, K103N virus
HIV-1 Y181C RT mutant = conditions: Human immunodeficiency virus 1, HeLa, read-out: Y181C activity level, HeLa-CD4-LTR-β-gal cells, Y181C virus
HIV-1 V106A RT mutant = conditions: Human immunodeficiency virus 1, HeLa, read-out: V106A activity level, HeLa-CD4-LTR-β-gal cells, V106A virus

CSc1nc(C(=O)NCc2ccc(Cl)c(Oc3cc(Cl)cc(C#N)c3)c2F)cn1C(c1ccccc1)(c1ccccc1)c1ccccc1 [Example 65, N-({4-chloro-3-[(3-chloro-5-cyanophenyl)oxy]-2-fluorophenyl}methyl)-2-(methylthio)-1-(triphenylmethyl)-1H-imidazole-4-carboxamide trifluoroacetate]
IC50 (HIV-1 K103N RT mutant): 10 to 1000 nM | IC50 (HIV-1 Y181C RT mutant): 10 to 1000 nM | IC50 (HIV-1 V106A RT mutant): 10 to 1000 nM

CSc1ncc(C(=O)NCc2ccc(Cl)c(Oc3cc(Cl)cc(C#N)c3)c2F)[nH]1 [Example 66, N-({4-chloro-3-[(3-chloro-5-cyanophenyl)oxy]-2-fluorophenyl}methyl)-2-(methylthio)-1H-imidazole-4-carboxamide trifluoroacetate]
IC50 (HIV-1 K103N RT mutant): 10 to 1000 nM | IC50 (HIV-1 Y181C RT mutant): 10 to 1000 nM | IC50 (HIV-1 V106A RT mutant): 10 to 1000 nM

Cn1cncc1C(=O)NCc1ccc(Cl)c(Oc2cc(Cl)cc(C#N)c2)c1F [Example 67, N-({4-chloro-3-[(3-chloro-5-cyanophenyl)oxy]-2-fluorophenyl}methyl)-1-methyl-1H-imidazole-5-carboxamide trifluoroacetate]
IC50 (HIV-1 K103N RT mutant): 10 to 1000 nM | IC50 (HIV-1 Y181C RT mutant): > 1000 nM | IC50 (HIV-1 V106A RT mutant): > 1000 nM

N#Cc1cc(Cl)cc(Oc2c(Cl)ccc(CNC(=O)c3[nH]cnc3[N+](=O)[O-])c2F)c1 [Example 68, N-({4-chloro-3-[(3-chloro-5-cyanophenyl)oxy]-2-fluorophenyl}methyl)-4-nitro-1H-imidazole-5-carboxamide trifluoroacetate]
IC50 (HIV-1 K103N RT mutant): < 10 nM | IC50 (HIV-1 Y181C RT mutant): < 10 nM | IC50 (HIV-1 V106A RT mutant): < 10 nM

N#Cc1cc(Cl)cc(Oc2c(Cl)ccc(CNC(=O)c3n[nH]c([N+](=O)[O-])c3Br)c2F)c1 [Example 69, 4-bromo-N-({4-chloro-3-[(3-chloro-5-cyanophenyl)oxy]-2-fluorophenyl}methyl)-5-nitro-1H-pyrazole-3-carboxamide trifluoroacetate]
IC50 (HIV-1 K103N RT mutant): 10 to 1000 nM | IC50 (HIV-1 Y181C RT mutant): 10 to 1000 nM | IC50 (HIV-1 V106A RT mutant): 10 to 1000 nM

N#Cc1cc(Cl)cc(Oc2c(Cl)ccc(CNC(=O)c3cc([N+](=O)[O-])c[nH]3)c2F)c1 [Example 70, N-({4-chloro-3-[(3-chloro-5-cyanophenyl)oxy]-2-fluorophenyl}methyl)-4-nitro-1H-pyrrole-2-carboxamide trifluoroacetate]
IC50 (HIV-1 K103N RT mutant): < 10 nM | IC50 (HIV-1 Y181C RT mutant): < 10 nM | IC50 (HIV-1 V106A RT mutant): 10 to 1000 nM

Cc1[nH]c(C(=O)NCc2ccc(Cl)c(Oc3cc(Cl)cc(C#N)c3)c2F)c(C)c1C#N [Example 71, N-({4-chloro-3-[(3-chloro-5-cyanophenyl)oxy]-2-fluorophenyl}methyl)-4-cyano-3,5-dimethyl-1H-pyrrole-2-carboxamide trifluoroacetate]
IC50 (HIV-1 K103N RT mutant): < 10 nM | IC50 (HIV-1 Y181C RT mutant): < 10 nM | IC50 (HIV-1 V106A RT mutant): < 10 nM

Cn1ccnc1C(=O)NCc1ccc(Cl)c(Oc2cc(Cl)cc(C#N)c2)c1F [Example 72, N-({4-chloro-3-[(3-chloro-5-cyanophenyl)oxy]-2-fluorophenyl}methyl)-1-methyl-1H-imidazole-2-carboxamide trifluoroacetate]
IC50 (HIV-1 K103N RT mutant): 10 to 1000 nM | IC50 (HIV-1 Y181C RT mutant): 10 to 1000 nM | IC50 (HIV-1 V106A RT mutant): > 1000 nM

COc1ccc2[nH]c(C(=O)NCc3ccc(Cl)c(Oc4cc(Cl)cc(C#N)c4)c3F)cc2c1Br [Example 73, 4-bromo-N-({4-chloro-3-[(3-chloro-5-cyanophenyl)oxy]-2-fluorophenyl}methyl)-5-(methyloxy)-1H-indole-2-carboxamide trifluoroacetate]
IC50 (HIV-1 K103N RT mutant): 10 to 1000 nM | IC50 (HIV-1 Y181C RT mutant): 10 to 1000 nM | IC50 (HIV-1 V106A RT mutant): 10 to 1000 nM

CC(=O)NCc1ccc2cc(C(=O)NCc3ccc(Cl)c(Oc4cc(Cl)cc(C#N)c4)c3F)[nH]c2c1 [Example 74, 6-[(acetylamino)methyl]-N-({4-chloro-3-[(3-chloro-5-cyanophenyl)oxy]-2-fluorophenyl}methyl)-1H-indole-2-carboxamide trifluoroacetate]
IC50 (HIV-1 K103N RT mutant): < 10 nM | IC50 (HIV-1 Y181C RT mutant): < 10 nM | IC50 (HIV-1 V106A RT mutant): < 10 nM

N#Cc1cc(Cl)cc(Oc2c(Cl)ccc(CNC(=O)c3[nH]c4ccccc4c3Cl)c2F)c1 [Example 75, 3-chloro-N-({4-chloro-3-[(3-chloro-5-cyanophenyl)oxy]-2-fluorophenyl}methyl)-1H-indole-2-carboxamide trifluoroacetate]
IC50 (HIV-1 K103N RT mutant): < 10 nM | IC50 (HIV-1 Y181C RT mutant): 10 to 1000 nM | IC50 (HIV-1 V106A RT mutant): < 10 nM

CCN(CC)S(=O)(=O)c1c[nH]c(C(=O)NCc2ccc(Cl)c(Oc3cc(Cl)cc(C#N)c3)c2F)c1 [Example 76, N-({4-chloro-3-[(3-chloro-5-cyanophenyl)oxy]-2-fluorophenyl}methyl)-4-[(diethylamino)sulfonyl]-1H-pyrrole-2-carboxamide trifluoroacetate]
IC50 (HIV-1 K103N RT mutant): 10 to 1000 nM | IC50 (HIV-1 Y181C RT mutant): 10 to 1000 nM | IC50 (HIV-1 V106A RT mutant): > 1000 nM

CCc1nc(Cl)c(C(=O)NCc2ccc(Cl)c(Oc3cc(Cl)cc(C#N)c3)c2F)[nH]1 [Example 77, 4-chloro-N-({4-chloro-3-[(3-chloro-5-cyanophenyl)oxy]-2-fluorophenyl}methyl)-2-ethyl-1H-imidazole-5-carboxamide trifluoroacetate]
IC50 (HIV-1 K103N RT mutant): < 10 nM | IC50 (HIV-1 Y181C RT mutant): < 10 nM | IC50 (HIV-1 V106A RT mutant): < 10 nM

CC(=O)c1ccc2cc(C(=O)NCc3ccc(Cl)c(Oc4cc(Cl)cc(C#N)c4)c3F)[nH]c2c1 [Example 78, 6-acetyl-N-({4-chloro-3-[(3-chloro-5-cyanophenyl)oxy]-2-fluorophenyl}methyl)-1H-indole-2-carboxamide trifluoroacetate]
IC50 (HIV-1 K103N RT mutant): < 10 nM | IC50 (HIV-1 Y181C RT mutant): 10 to 1000 nM | IC50 (HIV-1 V106A RT mutant): 10 to 1000 nM

N#Cc1cc(Cl)cc(Oc2c(Cl)ccc(CNC(=O)c3cc4ccc(C#N)cc4[nH]3)c2F)c1 [Example 79, N-({4-chloro-3-[(3-chloro-5-cyanophenyl)oxy]-2-fluorophenyl}methyl)-6-cyano-1H-indole-2-carboxamide trifluoroacetate]
IC50 (HIV-1 K103N RT mutant): < 10 nM | IC50 (HIV-1 Y181C RT mutant): < 10 nM | IC50 (HIV-1 V106A RT mutant): 10 to 1000 nM

CC(=O)c1ccc2[nH]c(C(=O)NCc3ccc(Cl)c(Oc4cc(Cl)cc(C#N)c4)c3F)cc2c1 [Example 80, 5-acetyl-N-({4-chloro-3-[(3-chloro-5-cyanophenyl)oxy]-2-fluorophenyl}methyl)-1H-indole-2-carboxamide trifluoroacetate]
IC50 (HIV-1 K103N RT mutant): < 10 nM | IC50 (HIV-1 Y181C RT mutant): < 10 nM | IC50 (HIV-1 V106A RT mutant): 10 to 1000 nM

CCc1c(C(=O)NCc2ccc(Cl)c(Oc3cc(Cl)cc(C#N)c3)c2F)[nH]c2ccc(OC)cc12 [Example 81, N-({4-chloro-3-[(3-chloro-5-cyanophenyl)oxy]-2-fluorophenyl}methyl)-3-ethyl-5-(methyloxy)-1H-indole-2-carboxamide trifluoroacetate]
IC50 (HIV-1 K103N RT mutant): < 10 nM | IC50 (HIV-1 Y181C RT mutant): 10 to 1000 nM | IC50 (HIV-1 V106A RT mutant): 10 to 1000 nM

COc1n[n+]([O-])cc2cc(C(=O)NCc3ccc(Cl)c(Oc4cc(Cl)cc(C#N)c4)c3F)[nH]c12 [Example 82, N-({4-chloro-3-[(3-chloro-5-cyanophenyl)oxy]-2-fluorophenyl}methyl)-7-(methyloxy)-1H-pyrrolo[2,3-d]pyridazine-2-carboxamide 5-oxide trifluoroacetate]
IC50 (HIV-1 K103N RT mutant): > 1000 nM | IC50 (HIV-1 Y181C RT mutant): > 1000 nM | IC50 (HIV-1 V106A RT mutant): > 1000 nM

N#Cc1cc(Cl)cc(Oc2c(Cl)ccc(CNC(=O)c3cn(C(c4ccccc4)(c4ccccc4)c4ccccc4)cn3)c2F)c1 [Example 83, N-({4-chloro-3-[(3-chloro-5-cyanophenyl)oxy]-2-fluorophenyl}methyl)-1-(triphenylmethyl)-1H-imidazole-4-carboxamide]
IC50 (HIV-1 K103N RT mutant): > 1000 nM | IC50 (HIV-1 Y181C RT mutant): > 1000 nM | IC50 (HIV-1 V106A RT mutant): > 1000 nM

N#Cc1cc(Cl)cc(Oc2c(Cl)ccc(CNC(=O)c3c[nH]cn3)c2F)c1 [Example 84, N-({4-chloro-3-[(3-chloro-5-cyanophenyl)oxy]-2-fluorophenyl}methyl)-1H-imidazole-4-carboxamide trifluoroacetate]
IC50 (HIV-1 K103N RT mutant): 10 to 1000 nM | IC50 (HIV-1 Y181C RT mutant): 10 to 1000 nM | IC50 (HIV-1 V106A RT mutant): 10 to 1000 nM

N#Cc1cc(Cl)cc(Oc2c(Cl)ccc(CNC(=O)c3ccccn3)c2F)c1 [Example 85, N-({4-chloro-3-[(3-chloro-5-cyanophenyl)oxy]-2-fluorophenyl}methyl)-2]
IC50 (HIV-1 K103N RT mutant): 10 to 1000 nM | IC50 (HIV-1 Y181C RT mutant): 10 to 1000 nM | IC50 (HIV-1 V106A RT mutant): 10 to 1000 nM

CSc1ncccc1C(=O)NCc1ccc(Cl)c(Oc2cc(Cl)cc(C#N)c2)c1F [Example 86, N-({4-chloro-3-[(3-chloro-5-cyanophenyl)oxy]-2-fluorophenyl}methyl)-2-(methylthio)-3-pyridinecarboxamide trifluoroacetate]
IC50 (HIV-1 K103N RT mutant): 10 to 1000 nM | IC50 (HIV-1 Y181C RT mutant): 10 to 1000 nM | IC50 (HIV-1 V106A RT mutant): > 1000 nM

N#Cc1cc(Cl)cc(Oc2c(Cl)ccc(CNC(=O)c3cnccn3)c2F)c1 [Example 87, N-({4-chloro-3-[(3-chloro-5-cyanophenyl)oxy]-2-fluorophenyl}methyl)-2-pyrazinecarboxamide trifluoroacetate]
IC50 (HIV-1 K103N RT mutant): 10 to 1000 nM | IC50 (HIV-1 Y181C RT mutant): 10 to 1000 nM | IC50 (HIV-1 V106A RT mutant): > 1000 nM

N#Cc1cc(Cl)cc(Oc2c(Cl)ccc(CNC(=O)c3csc(-c4ccncc4)n3)c2F)c1 [Example 88, N-({4-chloro-3-[(3-chloro-5-cyanophenyl)oxy]-2-fluorophenyl}methyl)-2-(4-pyridinyl)-1,3-thiazole-4-carboxamide trifluoroacetate]
IC50 (HIV-1 K103N RT mutant): 10 to 1000 nM | IC50 (HIV-1 Y181C RT mutant): 10 to 1000 nM | IC50 (HIV-1 V106A RT mutant): 10 to 1000 nM

N#Cc1cc(Cl)cc(Oc2c(Cl)ccc(CNC(=O)c3ccncc3)c2F)c1 [Example 89, N-({4-chloro-3-[(3-chloro-5-cyanophenyl)oxy]-2-fluorophenyl}methyl)-4-pyridinecarboxamide trifluoroacetate]
IC50 (HIV-1 K103N RT mutant): 10 to 1000 nM | IC50 (HIV-1 Y181C RT mutant): 10 to 1000 nM | IC50 (HIV-1 V106A RT mutant): 10 to 1000 nM

N#Cc1cc(Cl)cc(Oc2c(Cl)ccc(CNC(=O)c3csnn3)c2F)c1 [Example 90, N-({4-chloro-3-[(3-chloro-5-cyanophenyl)oxy]-2-fluorophenyl}methyl)-1,2,3-thiadiazole-4-carboxamide]
IC50 (HIV-1 K103N RT mutant): 10 to 1000 nM | IC50 (HIV-1 Y181C RT mutant): 10 to 1000 nM | IC50 (HIV-1 V106A RT mutant): > 1000 nM

Cc1nnsc1C(=O)NCc1ccc(Cl)c(Oc2cc(Cl)cc(C#N)c2)c1F [Example 91, N-({4-chloro-3-[(3-chloro-5-cyanophenyl)oxy]-2-fluorophenyl}methyl)-4-methyl-1,2,3-thiadiazole-5-carboxamide]
IC50 (HIV-1 K103N RT mutant): 10 to 1000 nM | IC50 (HIV-1 Y181C RT mutant): 10 to 1000 nM | IC50 (HIV-1 V106A RT mutant): 10 to 1000 nM

Reference: US8304419B2, “Chemical compounds” (priority 2007, dated 2012)
